Laboratory results published in US20240122872A1, “COMPOSITIONS AND METHODS FOR TREATMENT OF MICROBIAL INFECTIONS” (EpiTop, Inc., priority 2022, published 2024).

Legend:
[1] = test system: methicillin-resistant S. aureus (MRSA) (ATCC BAA-1556); experiment: Bactericidal assay (colony count), MRSA; details: 2 hours at 37° C.; concentration as low as 0.0001%; thujopsene (0.001%), totarol (0.0001%) or combination
Procedure: (§1) Experiments were conducted using bacteria including methicillin-sensitive S. aureus (MSSA) (ATCC BAA-29213, Manassas, VA), methicillin-resistant S. aureus (MRSA) (ATCC BAA-1556), and Streptococcuspyogenes (ATCC BAA-19615). Bacterial cultures were grown overnight in Tryptic Soy Broth (Becton Dickinson, Franklin Lakes, NJ) at 37° C. and reseeded in fresh medium three hours prior to experiment. Bacterial concentration was determined by optical density. Bacteria were incubated with vehicle, thujopsene (0.001%), totarol (0.0001%), or a combination of thujopsene (0.001%) and totarol (0.0001%) for 2 hours at 37° C. while shaking, then plated on Tryptic Soy Agar plates and incubated overnight at 37° C. Multiple dilutions were made for each sample to ensure that there were a measurable number of colonies on a given plate. Colonies were counted the following day.
(§2) Inhibitory effects of the mixture on bacteria were analyzed using the bactericidal assay.

[2] = test system: methicillin-sensitive S. aureus (MSSA) (ATCC BAA-29213); experiment: Bactericidal assay (colony count), MSSA; details: 2 hours at 37° C.; concentration as low as 0.0001%; thujopsene (0.001%), totarol (0.0001%) or combination
Procedure: as §1, §2

**Q.** Which results are given for `CC1=CC[C@]2(C)CCCC(C)(C)[C@@]23C[C@@H]13` [thujopsene]?
**A.** Inhibition of MRSA [1]: significantly (P<0.0001) inhibited; Inhibition of MSSA [2]: significantly (P<0.0001) inhibited

**Q.** `CC(C)c1c(O)ccc2c1CC[C@H]1C(C)(C)CCC[C@]21C` [totarol] was tested. Which “Inhibition of MRSA” value [1] did it give?
**A.** significantly (P<0.0001) inhibited

**Q.** And the “Inhibition of MSSA” value [2]?
**A.** significantly (P<0.0001) inhibited
